Data from PMC11790891.
Results are given in words; binding and its absence hold for the method and conditions named. Some entries that bind do so weakly or less than the wild type. Where a sequence is shown, tags or fusion partners need not be part of it.

Protein sequences, listed by entry. Tags and fused reporters are not part of them. Lines headed by an entry give the natural chain unless they say otherwise; changes in a name come on top.
UniProt Q14683: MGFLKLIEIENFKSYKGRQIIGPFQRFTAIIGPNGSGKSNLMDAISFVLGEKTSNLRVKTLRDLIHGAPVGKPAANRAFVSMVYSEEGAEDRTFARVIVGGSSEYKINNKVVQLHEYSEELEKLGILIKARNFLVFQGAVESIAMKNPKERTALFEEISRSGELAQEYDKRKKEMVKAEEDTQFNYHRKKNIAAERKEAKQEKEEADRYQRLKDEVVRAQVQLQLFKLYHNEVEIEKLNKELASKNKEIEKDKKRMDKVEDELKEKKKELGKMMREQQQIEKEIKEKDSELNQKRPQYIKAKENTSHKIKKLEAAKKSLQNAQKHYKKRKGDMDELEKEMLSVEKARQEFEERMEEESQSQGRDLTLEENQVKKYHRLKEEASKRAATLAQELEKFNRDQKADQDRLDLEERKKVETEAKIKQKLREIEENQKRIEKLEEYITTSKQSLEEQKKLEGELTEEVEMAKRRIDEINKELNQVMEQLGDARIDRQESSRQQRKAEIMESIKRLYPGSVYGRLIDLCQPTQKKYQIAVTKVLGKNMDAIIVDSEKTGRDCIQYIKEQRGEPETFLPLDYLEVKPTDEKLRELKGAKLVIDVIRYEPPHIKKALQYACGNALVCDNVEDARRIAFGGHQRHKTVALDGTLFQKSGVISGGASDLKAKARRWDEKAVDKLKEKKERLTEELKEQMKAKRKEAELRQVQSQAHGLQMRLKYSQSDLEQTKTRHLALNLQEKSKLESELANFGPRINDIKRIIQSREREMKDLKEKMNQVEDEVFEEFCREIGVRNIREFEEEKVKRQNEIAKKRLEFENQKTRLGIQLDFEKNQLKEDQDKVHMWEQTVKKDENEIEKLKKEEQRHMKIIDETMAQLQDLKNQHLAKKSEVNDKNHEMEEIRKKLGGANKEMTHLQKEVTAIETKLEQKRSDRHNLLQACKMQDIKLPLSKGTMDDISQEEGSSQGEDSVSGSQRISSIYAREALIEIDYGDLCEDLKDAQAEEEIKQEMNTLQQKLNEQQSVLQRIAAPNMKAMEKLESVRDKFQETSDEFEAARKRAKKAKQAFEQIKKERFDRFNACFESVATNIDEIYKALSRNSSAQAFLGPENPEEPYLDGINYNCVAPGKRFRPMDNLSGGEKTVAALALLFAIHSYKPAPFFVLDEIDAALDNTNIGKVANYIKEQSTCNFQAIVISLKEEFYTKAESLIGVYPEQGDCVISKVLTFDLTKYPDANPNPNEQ
UniProt Q9UQE7: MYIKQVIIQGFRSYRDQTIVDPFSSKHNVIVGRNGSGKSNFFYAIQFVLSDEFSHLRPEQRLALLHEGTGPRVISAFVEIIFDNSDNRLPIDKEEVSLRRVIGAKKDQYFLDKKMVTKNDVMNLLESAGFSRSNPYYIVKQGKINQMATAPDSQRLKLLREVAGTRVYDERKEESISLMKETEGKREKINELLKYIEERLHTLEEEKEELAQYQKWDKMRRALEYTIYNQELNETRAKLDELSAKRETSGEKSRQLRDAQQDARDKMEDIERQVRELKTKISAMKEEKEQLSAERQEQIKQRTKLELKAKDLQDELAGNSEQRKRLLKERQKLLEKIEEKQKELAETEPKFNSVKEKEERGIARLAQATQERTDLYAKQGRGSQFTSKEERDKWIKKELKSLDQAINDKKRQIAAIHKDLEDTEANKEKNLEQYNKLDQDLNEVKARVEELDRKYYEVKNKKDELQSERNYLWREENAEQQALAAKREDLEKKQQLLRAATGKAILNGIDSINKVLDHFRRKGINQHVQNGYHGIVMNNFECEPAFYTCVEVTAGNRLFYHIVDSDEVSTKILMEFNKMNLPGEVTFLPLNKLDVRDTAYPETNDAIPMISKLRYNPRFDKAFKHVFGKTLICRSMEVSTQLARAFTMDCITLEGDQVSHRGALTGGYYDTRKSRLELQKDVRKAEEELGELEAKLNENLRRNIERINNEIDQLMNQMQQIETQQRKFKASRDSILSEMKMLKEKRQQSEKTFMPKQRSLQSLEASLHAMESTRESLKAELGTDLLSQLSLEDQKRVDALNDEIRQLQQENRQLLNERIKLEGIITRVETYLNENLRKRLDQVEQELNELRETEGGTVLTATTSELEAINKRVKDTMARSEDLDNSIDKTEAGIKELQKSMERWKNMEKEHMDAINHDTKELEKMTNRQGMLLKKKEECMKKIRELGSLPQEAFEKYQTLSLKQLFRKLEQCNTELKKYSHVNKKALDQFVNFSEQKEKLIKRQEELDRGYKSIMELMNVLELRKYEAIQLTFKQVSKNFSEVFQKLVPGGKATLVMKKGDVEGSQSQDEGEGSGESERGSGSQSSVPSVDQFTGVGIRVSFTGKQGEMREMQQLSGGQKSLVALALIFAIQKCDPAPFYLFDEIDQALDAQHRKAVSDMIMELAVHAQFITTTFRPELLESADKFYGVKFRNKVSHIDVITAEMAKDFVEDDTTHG
UniProt O60216: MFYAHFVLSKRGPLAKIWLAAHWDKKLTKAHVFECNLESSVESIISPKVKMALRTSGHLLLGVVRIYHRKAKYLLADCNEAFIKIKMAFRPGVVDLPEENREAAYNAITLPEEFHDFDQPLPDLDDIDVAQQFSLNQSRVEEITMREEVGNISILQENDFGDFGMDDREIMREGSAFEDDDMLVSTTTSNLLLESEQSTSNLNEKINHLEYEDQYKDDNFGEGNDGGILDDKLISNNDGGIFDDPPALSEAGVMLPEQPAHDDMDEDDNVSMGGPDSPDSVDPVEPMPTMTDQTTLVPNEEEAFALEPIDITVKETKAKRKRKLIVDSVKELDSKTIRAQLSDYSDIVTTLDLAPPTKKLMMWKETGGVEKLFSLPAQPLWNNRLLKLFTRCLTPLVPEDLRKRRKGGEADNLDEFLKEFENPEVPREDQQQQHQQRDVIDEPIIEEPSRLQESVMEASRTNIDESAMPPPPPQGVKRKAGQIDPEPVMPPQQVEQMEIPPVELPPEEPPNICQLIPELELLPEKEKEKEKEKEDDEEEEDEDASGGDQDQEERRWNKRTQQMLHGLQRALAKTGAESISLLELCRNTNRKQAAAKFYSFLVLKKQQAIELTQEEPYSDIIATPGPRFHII
UniProt Q8WVM7: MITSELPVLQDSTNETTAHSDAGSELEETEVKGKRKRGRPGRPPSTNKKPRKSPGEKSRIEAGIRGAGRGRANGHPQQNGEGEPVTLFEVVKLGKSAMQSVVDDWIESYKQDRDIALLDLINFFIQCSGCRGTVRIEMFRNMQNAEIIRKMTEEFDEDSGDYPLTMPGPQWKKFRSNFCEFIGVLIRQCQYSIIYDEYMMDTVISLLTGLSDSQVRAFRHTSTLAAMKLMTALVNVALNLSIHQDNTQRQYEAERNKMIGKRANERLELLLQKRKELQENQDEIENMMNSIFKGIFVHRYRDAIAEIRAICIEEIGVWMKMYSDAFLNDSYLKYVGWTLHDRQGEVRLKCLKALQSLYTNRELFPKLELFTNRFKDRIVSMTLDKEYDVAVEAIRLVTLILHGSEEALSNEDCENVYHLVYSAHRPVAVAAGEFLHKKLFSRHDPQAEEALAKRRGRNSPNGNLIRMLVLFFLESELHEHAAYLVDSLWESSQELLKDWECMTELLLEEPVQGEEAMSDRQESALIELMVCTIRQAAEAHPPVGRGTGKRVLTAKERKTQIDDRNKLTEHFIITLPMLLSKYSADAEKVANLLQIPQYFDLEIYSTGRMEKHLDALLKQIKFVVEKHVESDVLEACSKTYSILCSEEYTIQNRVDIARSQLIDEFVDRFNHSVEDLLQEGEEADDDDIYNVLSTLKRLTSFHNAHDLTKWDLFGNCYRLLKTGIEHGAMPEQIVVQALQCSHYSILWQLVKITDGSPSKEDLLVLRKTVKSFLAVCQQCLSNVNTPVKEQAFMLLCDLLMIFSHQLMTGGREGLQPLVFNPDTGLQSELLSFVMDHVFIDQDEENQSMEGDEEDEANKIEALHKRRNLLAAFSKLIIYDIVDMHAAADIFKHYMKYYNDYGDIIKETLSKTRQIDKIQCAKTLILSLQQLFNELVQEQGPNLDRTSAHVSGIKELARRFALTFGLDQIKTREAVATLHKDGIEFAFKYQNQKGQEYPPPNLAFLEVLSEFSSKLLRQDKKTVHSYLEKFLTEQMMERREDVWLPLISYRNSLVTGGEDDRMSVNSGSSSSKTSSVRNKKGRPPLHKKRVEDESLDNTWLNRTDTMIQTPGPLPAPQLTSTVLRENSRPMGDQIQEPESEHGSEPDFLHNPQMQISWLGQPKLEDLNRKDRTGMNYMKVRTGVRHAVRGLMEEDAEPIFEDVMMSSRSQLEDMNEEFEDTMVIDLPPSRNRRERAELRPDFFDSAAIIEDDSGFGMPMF

What follows are binders tested against human recombinant cohesin tetramer with STAG1 (SMC1, SMC3, SCC1, STAG1) (human) (UniProt Q14683+Q9UQE7+O60216+Q8WVM7) (assay: pull-down; in vitro binding assay: cohesin complexes held on FLAG beads mixed with purified Phf2 at 4 °C for 1 h in 35 mM Hepes pH 7.5, 100 mM NaCl, 5% glycerol, 0.01% Tween; three washes; eluted with FLAG peptide; silver staining or Western blot; both purified).

| binding | Binder |
| --- | --- |
| no binding | His-Phf2 Δ3 (residues 660-819 deleted) (protein, UniProt O75151) MATVPVYCVCRLPYDVTRFMIECDACKDWFHGSCVGVEEEEAPDIDIYHCPNCEKTHGKSTLKKKRTWHKHGPGQAPDVKPVQNGSQLFIKELRSRTFPSAEDVVARVPGSQLTLGYMEEHGFTEPILVPKKDGLGLAVPAPTFYVSDVENYVGPERSVDVTDVTKQKDCKMKLKEFVDYYYSTNRKRVLNVTNLEFSDTRMSSFVEPPDIVKKLSWVENYWPDDALLAKPKVTKYCLICVKDSYTDFHIDSGGASAWYHVLKGEKTFYLIRPASANISLYERWRSASNHSEMFFADQVDKCYKCIVKQGQTLFIPSGWIYATLTPVDCLAFAGHFLHSLSVEMQMRAYEVERRLKLGSLTQFPNFETACWYMGKHLLEAFKGSHKSGKQLPPHLVQGAKILNGAFRSWTKKQALAEHEDELPEHFKPSQLIKDLAKEIRLSENASKAVRPEVNTVASSDEVCDGDREKEEPPSPIEATPPQSLLEKVSKKKTPKTVKMPKPSKIPKPPKPPKPPRPPKTLKLKDGGKKKGKKSRESASPTIPNLDLLEAHTKEALTKMEPPKKGKATKSVLSVPNKDVVHMQNDVERLEIREQTKSKSEAKWKYKNSKPDSLLKMEEEQKLEKSPLAGNKDNKFSFSFSNKKLLGSKALRPPTSPGVFAKGSSLAAHGARKNGGGSGKSAGKRLLKRAAKNSVDLDDYEEEQDHLDACFKDSDYVYPSLESDEDNPIFKSRSKKRKGSDDAPYSPTARVGPSVPRQDRPVREGTRVASIETGLAAAAAKLSQQEEQKSKKKKSAKRKLTPNTTSPSTSTSISAGTTSTSTTPASTTPASTTPASTSTASSQASQEGSSPEPPPESHSSSLADHEYTAAGTFTGAQAGRTSQPMAPGVFLTQRRPSASSPNNNTAAKGKRTKKGMATAKQRLGKILKIHRNGKLLL |
| binds | His-Phf2 Δ4 (residues 820-1096 deleted) (domain or fragment, UniProt O75151 1-819) MATVPVYCVCRLPYDVTRFMIECDACKDWFHGSCVGVEEEEAPDIDIYHCPNCEKTHGKSTLKKKRTWHKHGPGQAPDVKPVQNGSQLFIKELRSRTFPSAEDVVARVPGSQLTLGYMEEHGFTEPILVPKKDGLGLAVPAPTFYVSDVENYVGPERSVDVTDVTKQKDCKMKLKEFVDYYYSTNRKRVLNVTNLEFSDTRMSSFVEPPDIVKKLSWVENYWPDDALLAKPKVTKYCLICVKDSYTDFHIDSGGASAWYHVLKGEKTFYLIRPASANISLYERWRSASNHSEMFFADQVDKCYKCIVKQGQTLFIPSGWIYATLTPVDCLAFAGHFLHSLSVEMQMRAYEVERRLKLGSLTQFPNFETACWYMGKHLLEAFKGSHKSGKQLPPHLVQGAKILNGAFRSWTKKQALAEHEDELPEHFKPSQLIKDLAKEIRLSENASKAVRPEVNTVASSDEVCDGDREKEEPPSPIEATPPQSLLEKVSKKKTPKTVKMPKPSKIPKPPKPPKPPRPPKTLKLKDGGKKKGKKSRESASPTIPNLDLLEAHTKEALTKMEPPKKGKATKSVLSVPNKDVVHMQNDVERLEIREQTKSKSEAKWKYKNSKPDSLLKMEEEQKLEKSPLAGNKDNKFSFSFSNKKLLGSKALRPPTSPGVFGALQNFKEDKPKPVRDEYEYVSDDGELKIDEFPIRRKKNAPKRDLSFLLDKKAVLPTPVTKPKLDSAAYKSDDSSDEGSLHIDTDTKPGRNARVKKESGSSAAGILDLLQASEEVGALEYNPSSQPPASPSTQEAIQGMLSMANLQASDSCLQTTWGAGQ |
| binds | His-Phf2 Δ1 (residues 1-450 deleted) (domain or fragment, UniProt O75151 451-1096) PEVNTVASSDEVCDGDREKEEPPSPIEATPPQSLLEKVSKKKTPKTVKMPKPSKIPKPPKPPKPPRPPKTLKLKDGGKKKGKKSRESASPTIPNLDLLEAHTKEALTKMEPPKKGKATKSVLSVPNKDVVHMQNDVERLEIREQTKSKSEAKWKYKNSKPDSLLKMEEEQKLEKSPLAGNKDNKFSFSFSNKKLLGSKALRPPTSPGVFGALQNFKEDKPKPVRDEYEYVSDDGELKIDEFPIRRKKNAPKRDLSFLLDKKAVLPTPVTKPKLDSAAYKSDDSSDEGSLHIDTDTKPGRNARVKKESGSSAAGILDLLQASEEVGALEYNPSSQPPASPSTQEAIQGMLSMANLQASDSCLQTTWGAGQAKGSSLAAHGARKNGGGSGKSAGKRLLKRAAKNSVDLDDYEEEQDHLDACFKDSDYVYPSLESDEDNPIFKSRSKKRKGSDDAPYSPTARVGPSVPRQDRPVREGTRVASIETGLAAAAAKLSQQEEQKSKKKKSAKRKLTPNTTSPSTSTSISAGTTSTSTTPASTTPASTTPASTSTASSQASQEGSSPEPPPESHSSSLADHEYTAAGTFTGAQAGRTSQPMAPGVFLTQRRPSASSPNNNTAAKGKRTKKGMATAKQRLGKILKIHRNGKLLL |
